The text below walks through data of the supplement of paper PMC3724861.

The other results are listed elsewhere or left out.

This experiment has as its system T1, Caupolican (Caup) homeodomain DNA-binding domain.
T1 sequence: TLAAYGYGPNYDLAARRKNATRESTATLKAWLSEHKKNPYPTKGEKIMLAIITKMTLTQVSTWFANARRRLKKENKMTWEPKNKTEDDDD
In words: PBM E-score (8-mer, recovered from the published 9-mer minima) (E-score (dimensionless, -0.5 to 0.5)); Drosophila protein; higher = stronger relative binding preference, active = 0.31 or more. Summed up:
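An enrichment score, with higher meaning stronger, expresses relative binding preference for each short DNA word. The protein used was Caup's homeodomain DNA-binding domain (residues 214-303), produced by in vitro transcription and translation and tested at 100 nM on custom-designed protein binding microarrays. The 8-mer values were recovered from published 9-mer scores, each equal to the lower of its two constituent 8-mer scores.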
Regarding CTCAACTA, the “PBM E-score” value was inactive: 0.0164.
Regarding AATCCCTA, the “PBM E-score” value is inactive: 0.0149.
The result for ACTATCCT reads inactive: -0.00826.
For the sequence AGGGCTAG, the “PBM E-score” value is inactive: -0.145.
As to AGCCTGGA, the “PBM E-score” value was inactive: -0.19.
As for GAACGAAC, the “PBM E-score” value is inactive: 0.0277.
The result for AAAGTCCA reads inactive: -0.0306.
The result for AAAATGGC reads inactive: -0.00549; that for CACAGTTC, inactive: 0.0267.
Consider CACTTTCG, for which the “PBM E-score” value is inactive: 0.0317.
To CATAGCGA belongs inactive: 0.0218; to CGTCACCC, inactive: -0.234.
In the case of AGGTGGGG, the “PBM E-score” value was inactive: -0.193.
In the case of GTCCCTGA, the “PBM E-score” value was inactive: -0.0148.
The result for GAGATGGC reads inactive: -0.0967; that for GTCCAGAA, inactive: 0.051.
The result for GCGGCGGA reads inactive: -0.222; that for CCTTATGC, inactive: -0.109; that for GAGCTATC, inactive: -0.11.
To ATGACTGG belongs inactive: -0.00062; to CCGTCCCG, inactive: -0.221.
On to CTAGGAAA, for which the “PBM E-score” value was inactive: -0.0105.
Turning to CCGGCAAC, the “PBM E-score” value was inactive: -0.0754.
The result for CAAGTAGA reads inactive: 0.0939.
The result for AGGGACGA reads inactive: -0.0483; that for TGCATTAA, inactive: 0.0767.
The result for TCTTACCA reads inactive: 0.0412.
Regarding AGCTATTG, the “PBM E-score” value was at least 0.087.
On to CAGGGGGG, for which the “PBM E-score” value is inactive: -0.363.
In the case of AGGTGTTC, the “PBM E-score” value was inactive: 0.206.
To CCTACCGC belongs inactive: -0.162; to CGGAACAC, at least 0.262.
The result for ATACGCGC reads inactive: -0.0296; that for AGTCGTTG, inactive: -0.0576; that for CAGAGGGA, inactive: -0.177.
As to ATGTCGCA, the “PBM E-score” value was active: 0.331.
The result for GCGATATA reads inactive: 0.0317; that for AAGAAGAA, inactive: -0.0299; that for ATACTTAC, inactive: 0.166.
The result for GAATCAAA reads inactive: 0.0109; that for CGATGCAG, inactive: -0.112.
The result for ACTTCCTG reads inactive: 0.0102.
With GCCTCAAC, the “PBM E-score” value was inactive: -0.136.
TAATGCCA: the “PBM E-score” value is at least 0.0429.
The result for ATAAGGGG reads inactive: -0.15; that for ACTTATCA, inactive: 0.0236; that for TCTATCCA, inactive: -0.0275.
To AGTTGTCA belongs active: 0.315; to TAGACACA, inactive: 0.2.
The result for CCATCCTC reads inactive: -0.111; that for CAAAGATG, inactive: -0.00598; that for TCCTCGCA, inactive: -0.104.
On to CGCATCTC, for which the “PBM E-score” value was inactive: -0.0712.
To AGCACTCG belongs inactive: -0.0756.
To ACCCGTCG belongs inactive: -0.194.
Consider AGGAAAGA, for which the “PBM E-score” value is inactive: -0.0157.
The result for AACTTTGA reads inactive: 0.015; that for AGTCCTGG, inactive: -0.0612.
To AGTTTGAC belongs inactive: 0.0752.
To ATCAAGAC belongs inactive: 0.102; to CCACTTCC, inactive: -0.0264; to ACGGATAA, inactive: 0.0309.
For CATTTCGG, the “PBM E-score” value was inactive: 0.00244.
Turning to CTGCTGCA, the “PBM E-score” value was inactive: -0.0929.
To CGCAGAAC belongs inactive: -0.0278.
Consider CAGCGACA, for which the “PBM E-score” value is inactive: 0.185.
To CGCGGAAA belongs inactive: -0.11; to GAAACACA, inactive: 0.215.
With GACCCATC, the “PBM E-score” value is inactive: -0.0629.
The result for AGCCTCCG reads inactive: -0.283; that for TACATAGA, inactive: 0.278; that for CTCTACGA, inactive: -0.00649.
Consider CAGTGTCA, for which the “PBM E-score” value was inactive: 0.179.
With CCACGCTA, the “PBM E-score” value was inactive: -0.162.
To CCGTTTCA belongs inactive: -0.0372.
The result for ACAGGTTG reads inactive: 0.192; that for ACGCAAGA, inactive: 0.00351; that for GCAACCGC, inactive: -0.118.
ATGGAAAG: the “PBM E-score” value is inactive: -0.0209.
AGAGGGGA: the “PBM E-score” value was inactive: -0.201.
The result for GTCTCACA reads inactive: 0.0806; that for AACCGGCG, inactive: -0.0557; that for GATTGGAA, inactive: -0.0852.
The result for AAGTCATA reads inactive: 0.0399; that for GATACTAA, inactive: 0.101.
The result for TCCTCAAA reads at least -0.00054.
As to CGCTCCCC, the “PBM E-score” value was inactive: -0.314.
The result for ACGATTCA reads inactive: -0.00059; that for AGGGTAAT, inactive: 0.0509; that for AATGCATC, inactive: 0.0542.
As to AGAATATA, the “PBM E-score” value is inactive: 0.129.
Consider AACGGGCA, for which the “PBM E-score” value was inactive: -0.0377.
The result for AAATGCTA reads inactive: 0.0285; that for TATGCAAA, inactive: 0.121.
To GGCCGACC belongs inactive: -0.208; to AATTAGAG, inactive: 0.00042.
The result for CTCACTAC reads inactive: 0.075; that for AAAAAGCT, inactive: -0.189.
In the case of CTAGTTGA, the “PBM E-score” value is inactive: 0.0852.
As for CCCTGTAA, the “PBM E-score” value is inactive: 0.161.
As to ACTCAGTG, the “PBM E-score” value is inactive: -0.068.
The result for CCTCGTCA reads at least 0.0375; that for ATTCTCAA, inactive: 0.0425.
Turning to AGTACATA, the “PBM E-score” value is active: 0.381.
To GCAGTTCC belongs inactive: -0.129; to AGTCTAAG, inactive: 0.0473; to CAGCTTGA, inactive: -0.0258.
Consider ACCATATC, for which the “PBM E-score” value was inactive: 0.0441.
The result for ATATATGG reads inactive: 0.127.
For CGAGGGCG, the “PBM E-score” value was inactive: -0.271.
The result for ACACAGAC reads inactive: 0.196.
Regarding AGGTTAAA, the “PBM E-score” value was inactive: 0.0382.
As to AGCCGCAG, the “PBM E-score” value is inactive: -0.233.
To ACTGTACC belongs inactive: 0.107; to GAGAGACA, inactive: 0.0653.
The result for CGTAATCC reads inactive: 0.0262; that for AGGGGATC, inactive: -0.123; that for AGCGACCC, inactive: -0.214.
Consider ATTGTCAG, for which the “PBM E-score” value is inactive: 0.157.
To GTCTGCAA belongs inactive: -0.0406.
The result for GGTAGCTA reads inactive: -0.0708.
The result for TAGTGACA reads inactive: 0.247; that for AGGTATAT, inactive: 0.029.
Regarding ACAAGCCT, the “PBM E-score” value is inactive: 0.218.
To AGATAAGG belongs inactive: -0.047; to ATTACATC, active: 0.374.
The result for ACTTGTCC reads inactive: 0.237; that for CTAAGGTA, inactive: 0.0501.
Take AATACGTC: the “PBM E-score” value is inactive: 0.0237.
The result for CTTACGCA reads inactive: 0.0487.
To ATATTCTG belongs inactive: 0.125.
To CCAGCTCG belongs inactive: -0.148.
As to TCATACAA, the “PBM E-score” value is inactive: 0.163.
To CTATTGAA belongs inactive: 0.0499.
For the sequence CGGAGGCC, the “PBM E-score” value is inactive: -0.299.
CACTGGCA: the “PBM E-score” value is inactive: -0.027.
As for CGGGGACC, the “PBM E-score” value was inactive: -0.286.
The result for ATTCCGAG reads inactive: -0.0451; that for AAGCATTC, inactive: 0.0134.
With AGTGTATG, the “PBM E-score” value was inactive: 0.125.
To AGGCGTCA belongs inactive: -0.0905; to ACGCTTAG, inactive: -0.0224.
